Assay results reported in PubChem BioAssay AID1645887 (National Center for Advancing Translational Sciences (NCATS), 2021).
Values joined by “and” are separate entries in the source; they are usually repeats but may differ in a detail not shown here. Equal values may be shown once. Hit rate of the full screen: of about 16,000 compounds, about 40 (0.2%) were called active. Another 1% or so got no clear call; they are omitted. Calls come from the whole dose curve; as a rule, active = well fitted activation curve with a large enough effect; inconclusive = small, poorly fitted or top-dose-only effect, or another doubt; inactive = no such curve, though single readings can be large or run the other way. Some of the results follow.

target: Rap guanine nucleotide exchange factor 4 (Homo sapiens) (UniProt Q8WZA2); assay: Validation qHTS for agonist of cAMP-regulated guanine nucleotide exchange factor 4 (EPAC2); settings: EPAC2 Rap1B BODIPY-GDP exchange, fluorescence; activation: hits give high values;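 note: exchange makes BODIPY-GDP fluorescence drop when released from Rap1B; series mostly up to about 150 µM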
UniProt Q8WZA2, sequence (Q8WZA2 whole entry, looked up): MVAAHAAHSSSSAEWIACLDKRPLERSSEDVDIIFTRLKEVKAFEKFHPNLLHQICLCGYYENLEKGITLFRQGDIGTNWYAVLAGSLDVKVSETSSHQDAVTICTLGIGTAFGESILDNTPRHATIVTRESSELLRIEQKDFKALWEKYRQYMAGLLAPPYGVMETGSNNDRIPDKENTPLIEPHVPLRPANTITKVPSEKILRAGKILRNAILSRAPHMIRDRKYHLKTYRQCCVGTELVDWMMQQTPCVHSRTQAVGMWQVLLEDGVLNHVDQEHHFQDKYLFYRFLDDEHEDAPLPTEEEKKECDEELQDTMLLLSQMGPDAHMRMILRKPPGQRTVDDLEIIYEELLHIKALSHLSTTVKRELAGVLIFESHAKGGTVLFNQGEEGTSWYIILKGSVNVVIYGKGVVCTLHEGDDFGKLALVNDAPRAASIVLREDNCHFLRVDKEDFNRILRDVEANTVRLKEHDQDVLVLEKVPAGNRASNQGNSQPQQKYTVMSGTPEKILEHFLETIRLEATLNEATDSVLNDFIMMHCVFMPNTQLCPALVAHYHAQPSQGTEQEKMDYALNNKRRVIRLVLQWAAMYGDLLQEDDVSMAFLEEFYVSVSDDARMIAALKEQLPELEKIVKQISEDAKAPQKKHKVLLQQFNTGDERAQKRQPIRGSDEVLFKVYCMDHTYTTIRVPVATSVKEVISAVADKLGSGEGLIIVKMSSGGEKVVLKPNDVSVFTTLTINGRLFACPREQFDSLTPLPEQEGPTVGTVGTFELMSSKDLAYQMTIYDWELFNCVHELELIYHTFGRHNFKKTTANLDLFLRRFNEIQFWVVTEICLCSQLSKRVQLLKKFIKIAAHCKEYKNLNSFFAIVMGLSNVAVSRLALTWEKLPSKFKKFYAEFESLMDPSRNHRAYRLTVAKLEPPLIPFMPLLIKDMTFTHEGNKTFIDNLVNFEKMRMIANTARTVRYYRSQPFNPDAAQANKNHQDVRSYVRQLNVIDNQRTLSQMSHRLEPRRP
Summary of the method: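 Fluorescent exchange assay: 100 nM EPAC2 with 250 nM RAP1B-BODIPY-GDP and 50 uM GDP; compound added, 5 min at room temperature, then read (ex 480/em 540 nm) every 5 min for 30 min. Normalized to 6.5 mM cAMP agonist control.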
% is set by controls: 0 for no effect and ±100 for the full control effect.

activation, inactive:
COc1ccc(-c2cn(Cc3ccc([N+](=O)[O-])cc3)nn2)cc1 -7.04%, COc1ccc(CNc2ncnc3ccc(-c4ccccc4OC)cc23)c(OC)c1 7.66%, N#Cc1cccc(-c2nc(NCc3ccccc3)c3ccccc3n2)c1 -16.5%, Cc1noc(C)c1-c1cc(Nc2ccc(F)cc2)ncn1 -33.7%, O=C(/C=C/c1ccc(O)cc1)c1ccccc1O -4.79%, CN[C@@H]1[C@H](O[C@H]2[C@H](O[C@H]3[C@H](O)[C@@H](O)[C@H](N=C(N)N)[C@@H](O)[C@@H]3N=C(N)N)O[C@@H](C)[C@]2(O)CO)O[C@@H](CO)[C@H](O)[C@H]1O -8.54%, COc1ccc2c(c1)-c1nc(-n3ncc(C(=O)NC[C@@H]4CCCN5CCCC[C@H]45)c3C)ncc1CC2 -1.31%, C=C1C2CC[C@@]3(C)C(c4ccoc4)OC(=O)C[C@@]13OC1CC(OC(C)=O)C(C)(C)C(CC(=O)OC)[C@@]12C (stereo partly specified) -21.8%, Cc1onc(-c2ccccc2Cl)c1C(=O)N[C@@H]1C(=O)N2[C@@H]1SC(C)(C)[C@@H]2C(=O)O -39.2%, Nc1ccc(S(=O)(=O)Nc2ccccc2)cc1 11.5%, Cc1cccc(C(=O)NCc2nc(-c3cccc(NC(=O)c4ccoc4C)c3)oc2C)n1 -11.3%, CC(C)Nc1cccnc1N1CCN(C(=O)c2cc3cc(NS(C)(=O)=O)ccc3[nH]2)CC1 -10.8%, CN(CC[C@@H](Oc1ccc(C(F)(F)F)cc1)c1ccccc1)CC(=O)O 1.01%, COc1ncc2nc(-c3cccs3)c(=O)n(CCc3ccccc3)c2n1 0.143%, NS(=O)(=O)c1cc2c(cc1Cl)NC=NS2(=O)=O -1.59% and 4.33% and -4.24%, Cc1ccc(CN2[C@@H]3c4ccccc4C[C@@H]3OCCS2(=O)=O)cc1 -29.9%, Cn1c(=O)c2[nH]c(-c3ccccc3)nc2n(C)c1=O -24.5%, COc1ccc(C(=O)N2CCC3(CCCN(c4ccncc4)C3)CC2)cc1 -3.13%, COc1ccccc1CNc1ccnc(-c2ccccc2CN(C)C)n1 -6.75%, C1CCN2C[C@H]3C[C@H](CN4CCCCC34)C2C1 (stereo partly specified) -9.9% and 4.39%, CN[C@@H]1[C@H](O)[C@H](NC)[C@H]2O[C@@]3(O)C(=O)C[C@@H](C)O[C@H]3O[C@@H]2[C@H]1O 11.2% and -15% and -21.4%, CCOC(=O)CN(C)C(=O)c1cnn(-c2ncc3c(n2)-c2ccccc2CCC3)c1C -9.8%, c1ccc(CNc2ccnc(-c3ccc4c(c3)OCO4)n2)cc1 4.21%, CC[C@H]1NC(=O)[C@@H](NC(=O)c2ncccc2O)[C@@H](C)OC(=O)[C@H](c2ccccc2)NC(=O)[C@@H]2CC(=O)CCN2C(=O)[C@H](Cc2ccccc2)N(C)C(=O)[C@@H]2CCCN2C1=O -7.79%, O=C(c1cnccn1)N1CCC2(CCCN(Cc3ccncc3)C2)CC1 -5.86%, NS(=O)(=O)c1cc2c(cc1Cl)NC(C(Cl)Cl)NS2(=O)=O (stereo unspecified) 0.9% and 5.51%, C[C@@H]1/C(=N/O)CC2C[C@@H]1C2(C)C -29.7%, CN1CCN(C2Cc3ccccc3Sc3ccc(Cl)cc32)CC1 (stereo unspecified) -19.4% and -48.1%, CCC(=O)Nc1ccc(O)cc1 -11.1%, CC(=O)NCCNc1ncncc1-c1ccccc1C(F)(F)F -4.64%, CCCCCCCC/C=C\C/C=C\C/C=C\CCCC(=O)O -10.2%, Cc1csc(SCC(=O)N2CCOc3ccc(C(O)C4CCCCC4)cc3C2)n1 (stereo unspecified) 1.02%, CN(Cc1ccco1)c1ccnc(-c2ccoc2)n1 -6.64%, CCC1CN(CCNC(=O)c2scc3c2OCCO3)Cc2cc(OC)ccc2O1 (stereo unspecified) 0.0055%, C/C(=C(/CCO)SSCC1CCCO1)N(C=O)Cc1cnc(C)nc1N (stereo unspecified) 4.57% and -0.574%, CN(C)C(=O)c1ccc(/C=C/c2ccnc3ccccc23)cc1 -1.79%, CCC1CN(CCNC(=O)c2cccc(C(=O)OC)c2)Cc2cc(OC)ccc2O1 (stereo unspecified) 2.43%, C=C(NC(=O)C(=C)NC(=O)c1csc(C2=NC3c4csc(n4)C4NC(=O)c5csc(n5)C(C(C)(O)C(C)O)NC(=O)C5CSC(=N5)C(=CC)NC(=O)C(C(C)O)NC(=O)c5csc(n5)C3(CC2)NC(=O)C(C)NC(=O)C(=C)NC(=O)C(C)NC(=O)C(C(C)CC)NC2C=Cc3c(C(C)O)cc(nc3C2O)C(=O)OC4C)n1)C(N)=O (stereo unspecified) -39.9%, COc1ccccc1C1CN(Cc2cccc(O)c2)Cc2ccccc2O1 (stereo unspecified) -12.2%, O=C(c1cccnc1)C1CCCN(Cc2ccc3c(c2)CN(C(=O)c2cnccn2)CCO3)C1 (stereo unspecified) -21.1%, CCC(=O)OCC(=O)C1(OC(=O)CC)C(C)CC2C3C(Cl)CC4=CC(=O)C=C[C@@]4(C)C3C(O)C[C@@]21C (stereo partly specified) -2.32%, CN[C@H](CC(=O)O)C(=O)O -34.9% and 5.49% and -9.11%, CCCCCC(O)/C=C/C=O (stereo unspecified) -7.63%, Cc1c(C(=O)N2CC3CCC2C3)sc2ncnc(NCc3ccco3)c12 (stereo unspecified) -12.2%, Cc1c(-c2ccccc2)oc2c(C(=O)OCCN3CCCCC3)cccc2c1=O -2.51%, Cn1cccc1C(=O)N1CCC2(CCN(Cc3ccncc3)CC2)CC1 -7.85%, C#Cc1cccc(C(=O)NCc2nc(-c3cccc(NC(=O)c4ccccn4)c3)oc2C)c1 11.2%, COc1ccccc1CN1CCCC2(CCN(S(C)(=O)=O)CC2)C1 -11.2%, COC(=O)c1cccc(C(=O)N2CCc3c(C(=O)OC)c(OCc4ccccn4)cc(=O)n3CC2)c1 1.38%, NC(=O)NCC(N)C(=O)O (stereo unspecified) -8.2%, CCCCCCCCCCCCCCCCCCCCCCO 7.7%, NCCc1cnc[nH]1 10.6% and 6% and -13.9%, COc1c2c(c(C(=O)/C=C/C(C)=C/c3ccccc3)c3c1OCO3)CCN(C)C2 -15.9%, COc1ccc(O)cc1 -14.3%, CCCN1CCC(=O)N([C@H](CN=[N+]=[N-])Cc2ccccc2)CC1 -11.3%, CN(C)c1ncc2ncc(=O)n(CCC#N)c2n1 -8.96%, CC(=O)NC(Cc1ccccc1)C(=O)O (stereo unspecified) -7.16%, O=C(OC1C[C@@H]2CC3C[C@H](C1)N2CC3=O)c1c[nH]c2ccccc12 (stereo partly specified) 8.91%, CN(C)c1ncc2nc(-c3ccc(F)cc3)c(=O)n(Cc3ccc(F)cc3)c2n1 7.05%, COc1ccccc1-n1cc(CN2CCC3(CCC(CNC(=O)c4ccccc4)O3)CC2)cn1 (stereo unspecified) -12.5%, Nc1ncnc2c1nc(Cl)n2C1OC(CO)C(O)C1O (stereo unspecified) -8.09%, CN(N=O)C(=O)N[C@@H]1[C@@H](O)[C@H](O)[C@@H](CO)O[C@@H]1O -5.69%, NCCCC(=O)O -6.05% [middle of 4 runs], Cc1ccc(-c2nn(C(C)(C)C)c3ncnc(N)c23)cc1 -3.22% and -10.8%, COC(=O)c1cccc(C(=O)NCc2nc(-c3cccc(NC(=O)c4ccoc4C)c3)oc2C)c1 3.37%, C=C[C@]1(C)Cc2occ(C)c2C[C@H]1C(=C)C(=O)O -18.8%, COc1ccc(C(=O)C[N+]2(C)CCOCC2)cc1 -35.6%, CCN(CC)CCOC(=O)c1ccc(N)cc1Cl -11.9%, COCCn1c(=O)c(C)nc2cnc(Nc3ccccc3)nc21 -1.49%, C=C(C(=O)O)[C@@H]1CC[C@@]2(C)CCC[C@](C)(O)[C@@H]2C1 -21.4%, NC/C=C\C(=O)O -3.82% and 11.6% and -20.2%, COc1ccc(CN2CCCC(c3nc(-c4ccncc4)ncc3-c3ccccc3)C2)c(OC)c1OC (stereo unspecified) -32.3%, COc1cc(OC)c(OC)cc1CN1CCCC(n2cc(C(=O)N3CCCCC3)nn2)C1 (stereo unspecified) -9.46%, NC(N)=NC(=O)Cc1c(Cl)cccc1Cl -11.9% and 1.12% and -47.7%, CC1(C)O[C@H]2CC(=O)OC[C@]23[C@H]2CC[C@@]4(C)[C@H](c5ccoc5)OC(=O)[C@H]5O[C@]54[C@]2(C)C(=O)C[C@@H]13 -11.6%, COc1cccc(-c2cncnc2N(C)Cc2ccco2)c1 -1.11%, COc1ccc(CN2CCC(=O)N([C@H](CO)CC(C)C)CC2)cc1 -11.9%, Cc1noc(C)c1-c1nc(Nc2ccncc2)c2ccccc2n1 -14.4%, Cn1cc(-c2nc3cnc(N4CCNCC4)nc3n(CCc3ccccc3)c2=O)c2ccccc21 -8.84%, COc1ccccc1CNc1ncnc2ccc(-c3ccoc3)cc12 1.62%, CCCCCCC/C=C\CCCCCCCCC(=O)O -86.8%
